Several values for one entry are separate records, joined by “and”; a condition that tells them apart may be missing. Equal entries are not always repeated. The campaign covered roughly 420,000 compounds. About 64,000 (15%) were called active. This list was built around the results that the source calls inconclusive (neither active nor inactive); the mix of calls is not that of the screen. Calls come from the whole dose curve; as a rule, active = well fitted inhibition curve with a large enough effect; inconclusive = small, poorly fitted or top-dose-only effect; inactive = flat fitted curve, though single readings scatter. A potency beside an inconclusive call is a rough fit, not a confirmed value.
Assay: qHTS for Inhibitors of human tyrosyl-DNA phosphodiesterase 1 (TDP1): qHTS in cells in absence of CPT; note: nearly all actives have a fitted effect of over 55% in size
Details: DT40 Tdp1-/- hTDP1 cells, no CPT, ATP luminescence, 48 h; activity change, negative = growth inhibition: at 46.2 µM (top of the series) unless noted
Method in brief: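 Stably hTDP1-transfected Tdp1-null chicken DT40 cells were treated with library compounds minus camptothecin and grown for at least 48 hr at 37 °C, after which cellular ATP was quantified by luminescence.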
% is set by controls: 0 for no effect and ±100 for the full control effect; potency is the fitted concentration of half-maximal effect; tags give direction and shape of the fitted curve.

Row | Structure (SMILES) | activity change, negative = growth inhibition | Potency
1 | CC(=O)c1cccc(NC(=O)C2CCCN2S(=O)(=O)c2ccccc2C(F)(F)F)c1 (stereo unspecified) | inactive: -6.67% | 
2 | Fc1cccc(Cl)c1Cn1c(-c2cccs2)nc2ccccc21 |  | inconclusive: 16.4 µM [inhibitor, single point]
3 | COc1ccc(C(=O)NCC(C)(c2ccccc2)c2ccccc2)cc1S(=O)(=O)N1CCOCC1 |  | inconclusive: 14.6 µM [inhibitor, single point]
4 | CCOc1ccc(C(=O)Nc2cccc(C)n2)cc1 |  | inconclusive: 29.1 µM [inhibitor, single point]
5 | O=C(O)c1c(CNCc2cccc(F)c2)c2ccccc2n1Cc1ccccc1 |  | inconclusive: 25.9 µM [inhibitor, single point]
6 | Cc1ccc(-c2nn(-c3cccc(F)c3)cc2CN(Cc2nccn2C)C(C)C)o1 |  | inconclusive: 20.6 µM [inhibitor, single point]
7 | Cc1cc(-c2ccc(C)c(S(=O)(=O)NCC3CCN(Cc4ccc(F)cc4)CC3)c2)on1 |  | inconclusive: 25.9 µM [inhibitor, single point] and inconclusive: 29.1 µM [inhibitor, single point]
8 | O=C(NCC(c1ccc2c(c1)OCO2)N1CCOCC1)C(=O)Nc1cccc(Cl)c1 (stereo unspecified) |  | active: 11.6 µM
9 | Cc1nc(CSc2ccc(Cl)cc2)cc(N2CC(C)OC(C)C2)n1 (stereo unspecified) |  | inconclusive: 20.6 µM [inhibitor, single point]
10 | O=C(C1CCCN(S(=O)(=O)c2cccc3nsnc23)C1)N1CC=C(c2ccccc2)CC1 (stereo unspecified) |  | active: 10.3 µM
11 | CC(=O)Nc1ccc(S(=O)(=O)Nc2nc3ccccc3nc2N2CCc3ccccc3C2)cc1 | inactive: 10% | 
12 | N#Cc1cc2c(nc1SCc1ccc(Cl)nc1)CCCCC2 |  | inconclusive: 13 µM [inhibitor, partial curve]
13 | COc1ccc(CCNC(=S)N2CCN(S(=O)(=O)c3ccccc3)CC2)cc1 |  | inconclusive: 20.6 µM [inhibitor, single point]
14 | Cc1onc(-c2ccccc2Cl)c1C(=O)Nc1ccc(N2CCOCC2)cc1 |  | inconclusive: 18.4 µM [inhibitor, partial curve]
15 | O=C(CN1CCN(Cc2ccccc2)CC1)N/N=C/C=C/c1ccccc1[N+](=O)[O-] | inconclusive: -32.8% [inhibitor] | 
16 | COc1ccc(C(=O)OCC(=O)c2ccc(F)cc2)cc1OC | inactive: -13.7% | 
17 | O=C(Nc1ccc(Br)cc1)C1CCN(C(=O)c2ccc(F)cc2)CC1 |  | inconclusive: 23.1 µM [inhibitor, single point]
18 | CCOC(=O)N1CCN(C(=O)c2cc(OC)c(OC)c(OC)c2)CC1 | inactive: 10.5% | 
19 | C=CCNc1nc(-c2cccc(OC)c2O)nc2ccccc12 |  | inconclusive: 16.4 µM [inhibitor, partial curve]
20 | CC(=O)N1CCc2ccccc2C1CC(=O)O (stereo unspecified) | inactive: -6.77% | 
21 | COc1ccc(-c2nc3c(c(SCC(=O)Nc4ccccc4F)n2)Cc2cc(C)ccc2O3)cc1 | inactive: -8.82% | 
22 | Cn1c(=O)c2c(nc(CN3CCN(CCO)CC3)n2CCc2ccccc2)n(C)c1=O | inactive: -14.2% | 
23 | O=C(O)c1cc2cc(S(=O)(=O)O)ccc2cc1O | inactive: 6.23% | 

Row | Structure (SMILES) | activity change, negative = growth inhibition | Potency
24 | Cc1ccc(S(=O)(=O)N2CCC[C@H]2C(=O)Oc2ccccc2)cc1 | inactive: -9.14% | 
25 | NCCCC[C@H](N)C(=O)O | inactive: 8.82% | 
26 | O=C(N/N=C/c1cccnc1)c1ccc2ccccc2c1O | inactive: 1.72% | 
27 | COc1ccc(CCNC(=O)c2ccnc(C(C)(C)C)c2)cc1OC | inconclusive: -34.6% [inhibitor] | 
28 | COc1ccccc1OCC(=O)NCCC1=CCCCC1 |  | inconclusive: 25.9 µM [inhibitor, single point]
29 | Cc1cc(=O)[nH]c(CN2CCC(c3ccccc3)CC2)n1 | inactive: -1.56% | 
30 | Cc1ccc(NC(=O)CCCc2nnc3n(C)c(=O)c4sccc4n23)cc1F |  | inconclusive: 29.1 µM [inhibitor, single point]
31 | CC(C)(C)NC(=O)C(c1ccco1)N(C(=O)Cn1nnc(-c2ccc(F)cc2)n1)c1ccccc1 (stereo unspecified) |  | inconclusive: 29.1 µM [inhibitor, single point]
32 | Cc1cc(C)cc(NC(=S)NCCc2c[nH]c3ccccc23)c1 |  | inconclusive: 29.1 µM [inhibitor, single point]
33 | COc1ccc(CN2CCN(C(=O)CCC(=O)c3ccc(C)s3)CC2)cc1OC |  | inconclusive: 32.6 µM [inhibitor, single point]
34 | O=C(COC(=O)c1ccc(S(=O)(=O)N2CCCC2)cc1)Nc1cccc(Cl)c1 | inactive: 8.43% | 
35 | Cc1cc(-c2nc(C)c(C(=O)NNS(=O)(=O)c3ccc(Cl)cc3Cl)s2)no1 |  | inconclusive: 18.4 µM [inhibitor, single point]
36 | COC(=O)C1CCN(C(=O)c2sc3nc(-c4ccc(F)cc4)cn3c2C)CC1 |  | inconclusive: 10.3 µM [inhibitor, partial curve]
37 | C/C(=N/NC(=O)c1sc(NS(=O)(=O)c2ccccc2)nc1C)c1sc(N)nc1C | inactive: -4.7% | 
38 | CCc1ccccc1NC(=O)CN1C(=O)c2ccccc2Sc2ncccc21 |  | inconclusive: 25.9 µM [inhibitor, single point]
39 | O=C(c1cccnc1)N1CCN(Cc2cccc(F)c2)CC1 |  | inconclusive: 6.51 µM [inhibitor, full curve, poor fit]
40 | CC1(C)OC(=O)C2=C(C[C@@H](C3CCCC3)O[C@H]2c2ccc(Cl)cc2)O1 |  | inconclusive: 20.6 µM [inhibitor, single point]
41 | CC(C)=CCc1c(O)ccc2c1OC(c1ccc(O)c(O)c1)CC2=O (stereo unspecified) |  | active: 13 µM
42 | CCOc1ccc(S(=O)(=O)N2CCC(C(=O)OC(C)C(=O)N3CCOCC3)CC2)cc1 (stereo unspecified) | inactive: -22% | 
43 | Cc1ccc(NC(=O)C2(c3ccccc3)CC2(Cl)Cl)cc1C (stereo unspecified) |  | active: 16.4 µM
44 | Cc1cc(C)cc(-n2ccn(CC(=O)Nc3cc(C)ccc3C)c(=O)c2=O)c1 | inactive: -2.83% | 
45 | Cc1ccccc1CCN(C(=O)Cn1nnc2ccccc21)C(C(=O)NCC1CCCO1)c1nc2ccccc2n1C (stereo unspecified) |  | inconclusive: 11.6 µM [inhibitor, partial curve]
46 | Cc1cc(C)n(-c2ccc3nncn3n2)n1 | inconclusive: -3.01% [inhibitor] | 
